According to PMC7948418, “Genetic and biased agonist-mediated reductions in β-arrestin recruitment prolong cAMP signaling at glucagon family receptors” (The Journal of Biological Chemistry, 2020):

Biological target: T1, human GIPR of PathHunter β-arrestin-2 CHO-K1 cells (human) (UniProt P48546)
T1 sequence: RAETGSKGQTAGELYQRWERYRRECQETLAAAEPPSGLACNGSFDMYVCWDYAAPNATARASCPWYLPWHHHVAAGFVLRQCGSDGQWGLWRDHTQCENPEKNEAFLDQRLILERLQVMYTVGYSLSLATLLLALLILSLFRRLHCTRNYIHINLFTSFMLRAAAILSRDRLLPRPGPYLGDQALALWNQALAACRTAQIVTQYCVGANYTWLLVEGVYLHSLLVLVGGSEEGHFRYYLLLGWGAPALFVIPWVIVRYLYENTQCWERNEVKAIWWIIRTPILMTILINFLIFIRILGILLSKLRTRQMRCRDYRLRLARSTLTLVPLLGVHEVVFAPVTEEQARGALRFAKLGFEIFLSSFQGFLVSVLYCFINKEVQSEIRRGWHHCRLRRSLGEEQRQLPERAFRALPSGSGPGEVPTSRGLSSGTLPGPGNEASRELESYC

cAMP (HTRF), 30 min, PathHunter CHO-GIPR cells: fold reduction of potency against GIP: 100 fold
B1: GIP-dGln3 (peptide)
peptide: YA[dQ]GTFISDYSIAMDKIHQQDFVNWLLAQKGKKNDWKHNITQ

Square brackets hold non-standard residues; d marks the D form. Ends that are not written are not given here.
